The values below come from publication PMC4336329 (PLoS ONE, 2015).

In all, about 310,000 compounds went through this assay and about 2,200 (0.71%) showed an effect of 50% or more. The effect is printed as a negative number. This is one part of the list.

Sequence of human ether-à-go-go-related gene (hERG) potassium channel (Q12809 whole entry, looked up): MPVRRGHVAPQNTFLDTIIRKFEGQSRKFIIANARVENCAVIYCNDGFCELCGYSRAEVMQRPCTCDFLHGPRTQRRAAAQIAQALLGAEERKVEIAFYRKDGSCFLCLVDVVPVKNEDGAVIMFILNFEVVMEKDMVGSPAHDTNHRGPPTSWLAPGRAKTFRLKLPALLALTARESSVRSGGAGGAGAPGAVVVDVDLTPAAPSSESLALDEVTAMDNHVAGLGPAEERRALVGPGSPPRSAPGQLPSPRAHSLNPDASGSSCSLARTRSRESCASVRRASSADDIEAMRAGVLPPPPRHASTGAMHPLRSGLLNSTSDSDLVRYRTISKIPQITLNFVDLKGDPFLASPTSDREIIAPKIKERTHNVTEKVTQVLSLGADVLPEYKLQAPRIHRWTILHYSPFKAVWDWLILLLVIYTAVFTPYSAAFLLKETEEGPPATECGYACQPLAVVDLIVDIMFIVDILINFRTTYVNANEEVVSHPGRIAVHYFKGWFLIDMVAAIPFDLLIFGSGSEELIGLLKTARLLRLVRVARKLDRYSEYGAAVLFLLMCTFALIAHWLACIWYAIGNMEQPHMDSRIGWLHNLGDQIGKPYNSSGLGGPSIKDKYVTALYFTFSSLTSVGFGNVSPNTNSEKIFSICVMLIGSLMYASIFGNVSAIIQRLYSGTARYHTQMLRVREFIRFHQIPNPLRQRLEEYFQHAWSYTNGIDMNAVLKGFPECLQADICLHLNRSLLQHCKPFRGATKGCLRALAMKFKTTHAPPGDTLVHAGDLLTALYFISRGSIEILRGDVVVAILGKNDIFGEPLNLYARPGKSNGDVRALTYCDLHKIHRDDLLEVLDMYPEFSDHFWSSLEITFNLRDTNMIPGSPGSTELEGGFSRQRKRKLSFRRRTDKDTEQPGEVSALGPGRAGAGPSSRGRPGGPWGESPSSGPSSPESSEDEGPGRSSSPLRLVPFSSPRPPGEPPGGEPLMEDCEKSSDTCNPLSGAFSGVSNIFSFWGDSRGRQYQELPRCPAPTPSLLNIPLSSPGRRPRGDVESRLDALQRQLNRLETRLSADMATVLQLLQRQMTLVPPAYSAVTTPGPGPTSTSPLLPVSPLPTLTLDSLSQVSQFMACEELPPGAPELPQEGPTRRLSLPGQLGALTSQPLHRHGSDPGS

The test has as its target human ether-à-go-go-related gene (hERG) potassium channel (human, UniProt Q12809). In words: primary screen, population patch clamp on CHO cells stably expressing hERG.
In the case of `COc1ccc(Cn2c(C)c(C)c(C#N)c2NC(=O)Nc2ccc(F)cc2)cc1`, the “hERG current change (%, negative = inhibition) at 1uM” value stood at 7.3%. For the compound `Cn1c(CCc2ccccc2)n[nH]c1=S`, the “hERG current change (%, negative = inhibition) at 1uM” value turned out to be 9.71%. With `C/C(=N\NC(=O)COc1ccc(C(C)(C)C)cc1)c1ccc(N2CCOCC2)cc1`, the “hERG current change (%, negative = inhibition) at 1uM” value came to 0.176%.

Take `COC(=O)c1cc(C(=O)c2cccc(Cl)c2Cl)cn1C`: the “hERG current change (%, negative = inhibition) at 1uM” value is listed as -5.2%.

`Cc1ccc(-n2cc(-c3ccccc3)c3c(N4CCN(C)CC4)ncnc32)cc1`: the “hERG current change (%, negative = inhibition) at 1uM” value turned out to be 11%.

On to `CN(C(=O)COC(=O)c1cn(-c2ccccc2)nc1-c1ccccc1)C1CCS(=O)(=O)C1` (stereo not shown), for which the “hERG current change (%, negative = inhibition) at 1uM” value was 9.05%.

For `CN1C(=O)/C(=N/OC(=O)c2ccccc2Br)c2ccccc21`, the “hERG current change (%, negative = inhibition) at 1uM” value is 9.78%. In the case of `O=C(COc1ccccc1)N1CCCC1` it was 19%; in that of `CCC1Oc2nc(SC)nnc2-c2ccccc2N1C(=O)c1ccccc1` (stereo not shown), 11.8%. In the case of `NNCCc1ccccc1.O=S(=O)(O)O`, the “hERG current change (%, negative = inhibition) at 1uM” value came out at 9.6%. To `CCN1C(=O)[C@H]2[C@@H](c3ccc(C)cc3)N3C(=O)N(c4ccc(C(F)(F)F)cc4)C(=O)[C@@]3(Cc3ccccc3)[C@H]2C1=O` belongs 12.6%; to `COc1ccccc1C(=O)NC(C)C(c1cccs1)N1CCOCC1` (stereo not shown), 12%. In the case of `Cc1ccc(-n2c(=O)c3ccccc3n(CC(=O)NCc3ccco3)c2=O)cc1` it was 10.8%; in that of `CCOc1ccccc1NC(=O)c1ccc2nc[nH]c2c1`, 17.3%; in that of `COc1c(Cl)cc(Cl)cc1/C=N/NC(=O)c1nnn(-c2nonc2N)c1CN1CCC(C)CC1`, 19.9%. Take `CC(=O)Nc1ccc(S(=O)(=O)Nc2cccc3[nH]ncc23)cc1`: the “hERG current change (%, negative = inhibition) at 1uM” value is 8.97%.

Regarding `CCOC(=O)c1ccc(NC(=O)CN2CCN(Cc3ccccc3)CC2)cc1`, the “hERG current change (%, negative = inhibition) at 1uM” value is listed as -11.7%. On to `COc1ccc(/C=C(\C#N)C(=O)OCC(=O)Nc2c(C)cccc2C(C)C)cc1`, for which the “hERG current change (%, negative = inhibition) at 1uM” value is recorded as 12.9%. To `COc1ccc(COc2cc(-c3cccc(OC)c3)nc3ccc(NC(=O)C(C)C)cc23)cc1` belongs 3.34%; to `COC(=O)c1c(NC(=O)CCl)sc(C(=O)N2CCOCC2)c1C`, 8.51%; to `O=C1/C(=C/c2ccc(Br)cc2)Oc2cc(O)ccc21`, 15.3%. In the case of `CCN(CC)c1ccc(C2CC(=O)NC3=C2C(=O)CC(C)(C)C3)cc1` (stereo not shown) it was 8.94%. To `C=CCn1c(N)cc(=O)nc1SCC(=O)Nc1ccccc1` belongs 10.4%.

Turning to `Cc1c(Cl)cccc1NC(=O)C1C2C=CC(C2)C1C(=O)O` (stereo not shown), the “hERG current change (%, negative = inhibition) at 1uM” value was 11.4%. In the case of `CSc1ccc(C(=O)C2CCCN(C(=O)c3cccnc3SC)C2)cc1` (stereo not shown) it was 10.1%; in that of `CCN(CC)c1ccc(C=C2C(=O)OC3(CCCC3)OC2=O)cc1`, 3.3%. To `Cc1ccc(NC(=O)C2CCCN(c3ncnc4c3nc3n4CCCCC3)C2)cc1Cl` (stereo not shown) belongs 3.48%; to `CC(C)CCNC(=O)NC(=O)CN1C(=O)NC2(CCCCC2)C1=O`, -0.428%; to `CCNC(=O)c1c(N)sc2c1CCCCC2`, 9.61%.

Regarding `CCOC(=O)C1(C/C(C)=N/NC(N)=O)CC(C)(C)OC1=O` (stereo not shown), the “hERG current change (%, negative = inhibition) at 1uM” value was found to be 25.1%. On to `N/C(=N\OC(=O)c1ccco1)c1ccccn1`, for which the “hERG current change (%, negative = inhibition) at 1uM” value turned out to be 9.05%.

Consider `COCCNC(=O)C(c1ccc(F)cc1)N(Cc1ccccc1)C(=O)CCC(=O)Nc1nccs1` (stereo not shown), for which the “hERG current change (%, negative = inhibition) at 1uM” value is 13.9%. In the case of `O=C(CSc1ccc(Cl)cc1)Nc1ncccn1` it was 1.63%; in that of `COc1ccc(S(=O)(=O)N2CCCC2C(=O)Nc2ccc(C)cc2)cc1` (stereo not shown), 9.13%. To `C/C(=N\NC(=O)CNc1cccc(C)c1)c1ccc(Br)s1` belongs 6.52%.

For `O=C(c1ccc(CNS(=O)(=O)c2ccccc2)cc1)N1CCN(Cc2ccccc2)CC1`, the “hERG current change (%, negative = inhibition) at 1uM” value is on record as -4.51%. To `O=S(=O)(c1ccc2ncn(O)c2c1)N1CCOCC1` belongs 13.4%. For the compound `Cc1ccc(S(=O)(=O)C2(S(=O)(=O)c3ccc(C)cc3)CC2)cc1`, the “hERG current change (%, negative = inhibition) at 1uM” value worked out at 5.31%. As to `COc1ccc(C)cc1S(=O)(=O)N1CCN(C(=O)c2ncoc2-c2ccc(F)cc2)CC1`, the “hERG current change (%, negative = inhibition) at 1uM” value was determined as 14.4%. In the case of `CC(=O)N1c2ccc(S(=O)(=O)NCCC(=O)Nc3ccc(F)cc3C)cc2CC1C` (stereo not shown) it was -8.48%; in that of `COC(=O)C1=C(N)Oc2cc(C)n(CC3CCCO3)c(=O)c2C1c1ccccc1` (stereo not shown), 16.9%.

In the case of `CCCOc1ccc(NC(=O)CC2C(=O)N(C)C(=S)N2Cc2ccc3c(c2)OCO3)cc1` (stereo not shown), the “hERG current change (%, negative = inhibition) at 1uM” value was 11.1%.

`O=C(Nc1ccc(F)cc1)C1CCN(S(=O)(=O)c2cccc3nonc23)CC1`: the “hERG current change (%, negative = inhibition) at 1uM” value is 10.9%.

For the compound `Cc1cc(NCc2ccc3c(c2)OCO3)n2nc(C)nc2n1`, the “hERG current change (%, negative = inhibition) at 1uM” value is reported as -3.44%.

Regarding `COc1ccc(OCC(O)CNC(=O)c2ccc(Br)cc2)cc1` (stereo not shown), the “hERG current change (%, negative = inhibition) at 1uM” value is given as -10.7%. Turning to `O=C(c1ccccc1)c1ccc(Oc2ncccn2)cc1`, the “hERG current change (%, negative = inhibition) at 1uM” value worked out at 18.4%.

For the compound `N#Cc1cc2cc3c(cc2nc1NCCNC(=S)NCCCN1CCOCC1)OCO3`, the “hERG current change (%, negative = inhibition) at 1uM” value is given as 14%. In the case of `Cc1cc(Nc2ccccc2)n(-c2ccc(Br)cc2)n1` it was 3.39%.

As for `O=c1cc(N2CCCCC2)c(-c2ccccc2)nn1Cc1ccccc1`, the “hERG current change (%, negative = inhibition) at 1uM” value came out at 0.332%.

Take `CCCCC1(Cc2ccc(OC)c([N+](=O)[O-])c2)C(=O)N(c2ccccc2)N(c2ccccc2)C1=O`: the “hERG current change (%, negative = inhibition) at 1uM” value is reported as 6.34%. `C[C@H](NC(=O)c1ccco1)C(=O)N1CCCC1`: the “hERG current change (%, negative = inhibition) at 1uM” value is recorded as 12.5%. To `CCOc1ccc(C(=O)Nc2nnc(C3=COCCO3)o2)cc1` belongs 15%. In the case of `CC(=O)N1CCN(c2ccccc2NC(=O)c2ccc(-c3cccc([N+](=O)[O-])c3)o2)CC1` it was -81.6%; in that of `Cc1cccc(CCN2C(N(C)C)=NC[C@@H]2C)c1`, 7.09%; in that of `Cn1cc(C(=O)c2cccc(Cl)c2)cc1C#N`, 10.3%. In the case of `CCOc1cc(/C=N/NC(=O)CSc2nncn2C)ccc1OCc1cccc(C)c1` it was -4.63%. As to `CC(C)NC(=O)C1(c2ccccc2)CC1(Cl)Cl` (stereo not shown), the “hERG current change (%, negative = inhibition) at 1uM” value amounted to 11.3%. In the case of `Cc1nn(C)c(Cl)c1CN1CCCC(C(=O)Nc2cccc(-n3cccn3)c2)C1` (stereo not shown) it was -3.6%; in that of `O=S(=O)(c1ccccc1)N1CC1c1ccccc1` (stereo not shown), 5.09%; in that of `CC1=C(C(=O)OCC2CCCO2)C(c2coc3ccccc3c2=O)C2=C(CCCC2=O)N1` (stereo not shown), 0.381%. In the case of `Cc1ccc(C(=O)Oc2ccccc2N2CCOCC2)cc1` it was 11.1%; in that of `COc1cc(/C=N/NC(=O)c2ccncc2)ccc1OCCN1CCCCC1`, 5.52%. To `COC(=O)c1ccccc1NC(=O)c1ccc(COc2ccccc2)o1` belongs 12.3%; to `CN(Cc1ccccc1)C(=O)c1ccc(NC(=O)C2=CSCCO2)cc1`, 10.7%. With `CCN(CC)c1ccc(S(=O)(=O)N2CCOCC2)cc1NC(=O)CN1CCN(Cc2ccccc2)CC1.Cl`, the “hERG current change (%, negative = inhibition) at 1uM” value is on record as -17.5%. To `O=C(N/C(=C/c1cccnc1)C(=O)N1CCOCC1)c1ccccc1Br` belongs 15.7%; to `COc1ccc(OC)c2[nH]c(=O)c(CCNC(=O)C(C)C)cc12`, 15.7%. On to `CCC(OC(=O)c1nsc(Cl)c1Cl)C(=O)NCc1cccs1` (stereo not shown), for which the “hERG current change (%, negative = inhibition) at 1uM” value was -3.5%. For the compound `Cl.Nc1nc(Nc2ccc(Cl)cc2)nc2ccccc12`, the “hERG current change (%, negative = inhibition) at 1uM” value was found to be 6.98%.

With `COc1ccc(C(=O)NCCCN(C)CCCNC(=O)c2ccc(OC)cc2)cc1`, the “hERG current change (%, negative = inhibition) at 1uM” value worked out at 9.44%. For the compound `CC(=O)Nc1ccc(NC(=O)C/C(C)=N/NC(=O)COc2cc(C)c(Br)cc2Br)cc1`, the “hERG current change (%, negative = inhibition) at 1uM” value stood at 6.02%. For the compound `COCCNC(=S)N/N=C1\CC(C)CC(C)(C)C1` (stereo not shown), the “hERG current change (%, negative = inhibition) at 1uM” value is 8.67%. In the case of `CC1CCN(S(=O)(=O)c2cn(CC(=O)N3CCN(c4cccc(C(F)(F)F)c4)CC3)cn2)CC1` it was 5.78%; in that of `O=C(NN=c1c(=O)c2ccccc2c1=O)c1ccccc1`, -3.26%.

With `Cl.NC1=NC2(CCCCC2)N(c2cccc(Cl)c2)C(N)=N1`, the “hERG current change (%, negative = inhibition) at 1uM” value is recorded as 17.5%. In the case of `Cl.O=C1C2C3C=CC(C4CC34)C2C(=O)N1CCCCN1CCN(c2ccc(F)cc2)CC1` (stereo not shown) it was -69.2%; in that of `Cc1ccc(C(O)(C(=O)NNC(=O)CN2CCN(C)CC2)c2ccc(C)cc2)cc1`, 10.1%.

For `O=C(NCCN1CCOCC1)N1CCOCC1`, the “hERG current change (%, negative = inhibition) at 1uM” value came out at 1.21%.

For `COc1cc2nc(N3CCN(C(=O)c4ccco4)CC3)nc(N)c2cc1OC.Cl.O`, the “hERG current change (%, negative = inhibition) at 1uM” value came out at 2.99%.

Regarding `CCc1nnc(NC(=O)C(C)C)s1`, the “hERG current change (%, negative = inhibition) at 1uM” value was found to be 9.95%.

On to `CC(C)[C@H](NC(=O)[C@@H]1CSC2c3ccccc3C(=O)N21)C(=O)NC1CCCC1` (stereo partly shown), for which the “hERG current change (%, negative = inhibition) at 1uM” value is 19.5%.

On to `CCc1ccc2c(c1)C(O)(CC(=O)c1cccs1)C(=O)N2` (stereo not shown), for which the “hERG current change (%, negative = inhibition) at 1uM” value stood at 6.15%. In the case of `C[N+]1(C)C2CCC1CC(OC(=O)c1ccco1)C2.[Br-]` (stereo not shown) it was 8.57%; in that of `COc1c(/C=N/Nc2ccc([N+](=O)[O-])cc2[N+](=O)[O-])c(C)nn1-c1ccccc1`, 8.7%; in that of `O=C(COC(=O)C1(c2ccc(Cl)cc2)CCCC1)NC1CCS(=O)(=O)C1` (stereo not shown), -7.34%. In the case of `Cc1ccc(NC(=O)CCNC(=O)c2ccccc2Cl)cc1S(=O)(=O)N1CCCCCC1` it was 7.67%.

With `COC(=O)c1cc(OC)c(OC)cc1NCC(=O)Nc1ccc(C)cc1`, the “hERG current change (%, negative = inhibition) at 1uM” value came out at 2.14%. For `O=C(Cn1cnc2ccccc2c1=O)NCCCN1CCCC1=O`, the “hERG current change (%, negative = inhibition) at 1uM” value was 6%.
